Laboratory results: the antibiotic and cytotoxicity screens of Wong et al. (2023)
This is one part of the list.

Experiments:
HSkMC = human skeletal muscle cells; test: cytotoxicity call (relative viability < 0.9); conditions: 10 µM
HepG2 = test: cytotoxicity call (relative viability < 0.9); conditions: 10 µM
S. aureus RN4220 = test: growth inhibition call (relative growth <= 0.2); conditions: 50 µM

SMILES | cytotoxicity call (HSkMC) | cytotoxicity call (HepG2) | growth inhibition call (S. aureus RN4220)
CO[C@@H]1CN(C)C(=O)c2ccc(NS(=O)(=O)c3ccccc3)cc2OC[C@@H](C)N(C(=O)NC(C)C)C[C@H]1C | inactive | inactive | inactive
COc1ccc(COC[C@]23NC(=S)N[C@H](c4ccccc4O2)[C@H]3CO[Si](C)(C)C(C)(C)C)cc1 | inactive | inactive | inactive
C[C@@H]1CN([C@H](C)CO)C(=O)c2cc(NC(=O)NC3CCCCC3)ccc2O[C@@H](C)CCCCO[C@@H]1CN(C)C(=O)Nc1ccc(F)cc1 | inactive | inactive | inactive
C[C@@H]1CCCCO[C@@H](CN(C)C(=O)Nc2ccc(C(F)(F)F)cc2)[C@@H](C)CN([C@H](C)CO)C(=O)c2cc(NC(=O)Cc3ccccc3)ccc2O1 | inactive | inactive | inactive
C[C@@H]1CN([C@@H](C)CO)S(=O)(=O)c2ccc(C#CC3(O)CCCC3)cc2O[C@H]1CN(C)C(=O)c1cccnc1 | inactive | inactive | inactive
O=c1n(-c2ccc(F)cc2)nc2n1CCCN2 | inactive | inactive | inactive
COc1ccc(S(=O)(=O)Nc2cccc3c2O[C@H](CN(C)Cc2ccc(-c4ccccc4)cc2)[C@H](C)CN([C@H](C)CO)C3=O)cc1 | inactive | inactive | inactive
C[C@@H]1CN([C@@H](C)CO)C(=O)c2cccc(NC(=O)c3nc4ccccc4s3)c2O[C@H]1CN(C)CC1CCCCC1 | inactive | inactive | inactive
COc1ccc(S(=O)(=O)Nc2ccc3c(c2)C(=O)N([C@@H](C)CO)C[C@H](C)[C@@H](CN(C)S(=O)(=O)c2ccc(Cl)cc2)OCCCC[C@H](C)O3)cc1 | inactive | active | inactive
